This is an account of results in patent US20220089722A1 (NANTONG YICHEN BIOPHARMA, published 2022).

The term Kd denotes a measure of binding affinity in units of concentration. A high value points to a looser complex.

The target in test [1] is T1, EGFR on F98-EGFR cells (UniProt P00533). Nature of the test: cell-based or functional assay.
Test [2] has as its target T2, CD3 on T cells (Jurkat T cells; PBMC-T cells).
T2 construct: whole, on cells; the target is inferred from the anti-CD3 arm of the constructs
The test can be described thus: flow cytometry on activated T cells from PBMCs (PBMC-T). On the procedure: Peripheral blood of healthy volunteers was collected, and Ficoll-Hypaque(GE Healthcare) was used to separate peripheral blood monouclear cells (PBMCs) via gradient centrifugation. The purified PBMCs were resuspended in RPMI 1640/10% FBS complete medium. PBMCs were incubated with immobilized anti-CD3 (Clone OKT3, eBiosciences), and 2 μg mL anti-CD28 (Clone CloneCD28.2, eBiosciences) at 37° C. for 48 h. The activated T cells were then expanded for 10d with 20 U/ml IL2(R&D Systems). 2×10⁵ cells were washed by precooled PBS for 3 times, and blocked by 2% FBS (in PBS), and then incubated with IgFD-8, IgFD-18 or IgFD-19 at different concentrations (25 nM, 7.5 nM, 2.5 nM, 0.75 nM or 0.25 nM) for 1 h at 4° C. (cells were gently mixed during incubation). Unbounded antibodies were washed by 2% FBS (in PBS), and the cells were incubated with FITC anti-human IgGFc (KPL, Inc., MD) for 1 h at 4° C. (cells were gently mixed during incubation). The cells were subjected for flow cytometry analysis after the unbounded antibodies were washed by 2% FBS (in PBS).
In general terms: Flow cytometry measures light scatter and fluorescence of single cells or particles in a stream.

The target of test [3] is T1, EGFR on F98-EGFR cells. Nature of the test: flow cytometry on F98-EGFR cells. On the procedure:
F98-EGFR cells (a DMEM containing 10% FBS, 200 μg/ml G418) were cultured. 2×10⁵ cells were washed by precooled PBS for 3 times, and blocked by 2% FBS (soluble to PBS). IgFD-8, IgFD-9, IgFD-10, IgFD-11, IgFD-18, IgFD-19, IgFD-25, IgFD-26 or IgFD-31 (aEGFR expressed in a laboratory as a control) was added and incubated for 2 h at 4° C. (cells were gently mixed during incubation), unbounded antibodies were washed by 2% FBS (soluble to PBS), and then the remaining cells were incubated by FITC anti-human IgGFc(KPL, Inc., MD) for 1 h at 4° C., and washed by 2% FBS (soluble to PBS) for flow cytometry analysis. As shown in FIG. 7 and Table 4, the anti-CD3/anti-EGFR heterodimers in different forms of fusion could bind to EGFR on F98-EGFR cells, and there was no significant difference in the binding capacity of different heterodimers to F98-EGFR.

A further test deals with T3, CLL-1 on HL-60 cells (UniProt Q5QGZ9 1-265, limits assumed).
T3 sequence (looked up): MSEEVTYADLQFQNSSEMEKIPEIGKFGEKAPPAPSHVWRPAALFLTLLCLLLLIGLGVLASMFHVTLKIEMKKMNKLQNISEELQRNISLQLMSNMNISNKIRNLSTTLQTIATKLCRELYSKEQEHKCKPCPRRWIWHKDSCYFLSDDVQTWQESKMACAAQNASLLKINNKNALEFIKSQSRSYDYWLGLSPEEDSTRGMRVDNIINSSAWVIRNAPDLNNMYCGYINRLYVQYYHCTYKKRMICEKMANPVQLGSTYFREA
Nature of the test: cell-based or functional assay.

Test [4] concerns the target T4, hEGFR-6-his (SinoBiological) (human, UniProt P00533 in part).
T4 construct: Bought protein coated on the ELISA plate; also called human EGFR
Nature of the test: ELISA, hEGFR-6-his coated 100 ng/well, anti-human IgG Fc-HRP. On the procedure: hEGFR-6-his (SinoBiological) (100 ng/well) was coated in a 96-well plate, and incubated overnight at 4° C. After blocked by PBST (0.5% Tween-20 in PBS) containing 2% skim milk powder for 1 h at room temperature, the gradiently diluted heterodimeric antibodies IgFD-11, IgFD-24, IgFD-25, IgFD-26, IgFD-31, and anti-EGFR were added for incubation for 2 h at room temperature, respectively. After washing with PBST containing 2% skim milk powder for 4-5 times, an Anti-Human IgG (FC) Antibody-HRP (KPL) secondary antibody was added for incubation for 1 h at room temperature, and then washed by PBST containing 2% skim milk powder for 4-5 times, reading was performed at 650 nm after color development with a TMB colour reagent (BioLegend, Cat. 421101).
For orientation: In an ELISA, binding on a coated surface is turned into a signal by an enzyme label.

T2 sequence (P07766 23-207): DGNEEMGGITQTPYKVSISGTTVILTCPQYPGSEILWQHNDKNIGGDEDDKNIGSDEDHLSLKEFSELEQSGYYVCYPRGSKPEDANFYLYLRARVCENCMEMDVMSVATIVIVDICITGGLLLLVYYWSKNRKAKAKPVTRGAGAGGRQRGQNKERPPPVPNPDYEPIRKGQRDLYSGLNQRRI

B1: IgFD-18(anti-CD3/EGFR) (bispecific antibody, human IgG1, kappa)
chain 1: DIQMTQSPSSLSASVGDRVTITCQASQDISNYLNWYQQKPGKAPKLLIYDASNLETGVPSRFSGSGSGTDFTFTISSLQPEDIATYFCQHFDHLPLAFGGGTKVEIKGGGGSGGGGSGGGGSQVQLQESGPGLVKPSETLSLTCTVSGGSVSSGDYYWTWIRQSPGKGLEWIGHIYYSGNTNYNPSLKSRLTISIDTSKTQFSLKLSSVTAADTAIYYCVRDRVTGAFDIWGQGTMVTVSSGGSGGSGGGGSGGGGSEVQLVESGGGLVQPGGSLRLSCAASGFTFNTYAMNWVRQAPGKGLEWVARIRSKYNNYATYYADSVKDRFTISRDDSKNTLYLQMNSLRAEDTAVYYCVRHGNFGNSYVSWFAYWGQGTLVTVSSASTKGPSVFPLAPSSKSTSGGTAALGCLVKDYFPEPVTVSWNSGALTSGVHTFPAVLQSSGLYSLSSVVTVPSSSLGTQTYICNVNHKPSNTKVDKKV[letters of human IgG1 Fc with changes not shown]
chain 2: QAVVTQEPSLTVSPGGTVTLTCRSSTGAVTTSNYANWVQQKPDHLFRGLIGGTNKRAPGTPARFSGSLLGDKAALTISGAQPEDEAEYYCALWYSNLWVFGGGTKLTVLKRTVAAPSVFIFPPSDEQLKSGTASVVCLLNNFYPREAKVQWKVDNALQSGNSQESVTEQDSKDSTYSLSSTLTLSKADYEKHKVYACEVTHQGLSSPVTKSFNRGE[letters of human IgG1 Fc with changes not shown]
With B1, the “Promotion for the specific killing effect of PBMCs on target cells by heterodimers (EC50, pM); F98-EGFR cells, LDH assay” value with EGFR on F98-EGFR cells [1] worked out at 2600 pM. Further, the Kd in test [2] was determined as 29.1 nM; with EGFR on F98-EGFR cells [3], 0.168 nM.

B2: IgFD-23(anti-CD3/CLL-1) (bispecific antibody, human IgG1, kappa)
chain 1: EVQLVESGGGLVQPGGSLRLSCAASGFTFNTYAMNWVRQAPGKGLEWVARIRSKYNNYATYYADSVKDRFTISRDDSKNTLYLQMNSLRAEDTAVYYCVRHGNFGNSYVSWFAYWGQGTLVTVSSASTKGPSVFPLAPSSKSTSGGTAALGCLVKDYFPEPVTVSWNSGALTSGVHTFPAVLQSSGLYSLSSVVTVPSSSLGTQTYICNVNHKPSNTKVDKKV[letters of human IgG1 Fc with changes not shown]
chain 2: QAVVTQEPSLTVSPGGTVTLTCRSSTGAVTTSNYANWVQQKPDHLFRGLIGGTNKRAPGTPARFSGSLLGDKAALTISGAQPEDEAEYYCALWYSNLWVFGGGTKLTVLKRTVAAPSVFIFPPSDEQLKSGTASVVCLLNNFYPREAKVQWKVDNALQSGNSQESVTEQDSKDSTYSLSSTLTLSKADYEKHKVYACEVTHQGLSSPVTKSFNRGE[letters of human IgG1 Fc with changes not shown]GGSGGSGGGGSGGGGSEVQLVESGGGLVKPGGSLRLSCAVSGFSFSGNSMSWVRQAPGKGLEWVSYIDRDGSHIFYTDSVRGRFTISRDDAKNSLYLQMNSLRTEDTAVYYCVAEIGARDFLHWGQGTLVTVSSGGGGSGGGGSGGGGSDIQMTQSPSSLSASVGDRVTITCRASQSISSYLNWYQQKPGKAPKLLIYGASSLQSGVPSRFSGSGSGTDFTLTISSLQPEDFATYYCQQYNSYWTFGQGTKVDIK
Turning to B2, the “Promotion for the specific killing effect of PBMCs on target cells by heterodimers (EC50, pM); HL-60 cells, flow cytometry” value in the test with CLL-1 on HL-60 cells was determined as 60.9 pM.

B3: IgFD-19(anti-CD3/EGFR) (bispecific antibody, human IgG1, kappa)
chain 1: EVQLVESGGGLVQPGGSLRLSCAASGFTFNTYAMNWVRQAPGKGLEWVARIRSKYNNYATYYADSVKDRFTISRDDSKNTLYLQMNSLRAEDTAVYYCVRHGNFGNSYVSWFAYWGQGTLVTVSSASTKGPSVFPLAPSSKSTSGGTAALGCLVKDYFPEPVTVSWNSGALTSGVHTFPAVLQSSGLYSLSSVVTVPSSSLGTQTYICNVNHKPSNTKVDKKV[letters of human IgG1 Fc with changes not shown]
chain 2: DIQMTQSPSSLSASVGDRVTITCQASQDISNYLNWYQQKPGKAPKLLIYDASNLETGVPSRFSGSGSGTDFTFTISSLQPEDIATYFCQHFDHLPLAFGGGTKVEIKGGGGSGGGGSGGGGSQVQLQESGPGLVKPSETLSLTCTVSGGSVSSGDYYWTWIRQSPGKGLEWIGHIYYSGNTNYNPSLKSRLTISIDTSKTQFSLKLSSVTAADTAIYYCVRDRVTGAFDIWGQGTMVTVSSGGSGGSGGGGSGGGGSQAVVTQEPSLTVSPGGTVTLTCRSSTGAVTTSNYANWVQQKPDHLFRGLIGGTNKRAPGTPARFSGSLLGDKAALTISGAQPEDEAEYYCALWYSNLWVFGGGTKLTVLKRTVAAPSVFIFPPSDEQLKSGTASVVCLLNNFYPREAKVQWKVDNALQSGNSQESVTEQDSKDSTYSLSSTLTLSKADYEKHKVYACEVTHQGLSSPVTKSFNRGE[letters of human IgG1 Fc with changes not shown]
Regarding B3, in the test with EGFR on F98-EGFR cells [1], the “Promotion for the specific killing effect of PBMCs on target cells by heterodimers (EC50, pM); F98-EGFR cells, LDH assay” value worked out at 975 pM. Also, the figures for the Kd (in test [2]; with EGFR on F98-EGFR cells [3]) were 26.6 nM and 0.771 nM, respectively.

B4: IgFD-11(anti-CD3/EGFR) (bispecific antibody, human IgG1, kappa)
chain 1: EVQLVESGGGLVQPGGSLRLSCAASGFTFNTYAMNWVRQAPGKGLEWVARIRSKYNNYATYYADSVKDRFTISRDDSKNTLYLQMNSLRAEDTAVYYCVRHGNFGNSYVSWFAYWGQGTLVTVSSASTKGPSVFPLAPSSKSTSGGTAALGCLVKDYFPEPVTVSWNSGALTSGVHTFPAVLQSSGLYSLSSVVTVPSSSLGTQTYICNVNHKPSNTKVDKKV[letters of human IgG1 Fc with changes not shown]
chain 2: QAVVTQEPSLTVSPGGTVTLTCRSSTGAVTTSNYANWVQQKPDHLFRGLIGGTNKRAPGTPARFSGSLLGDKAALTISGAQPEDEAEYYCALWYSNLWVFGGGTKLTVLKRTVAAPSVFIFPPSDEQLKSGTASVVCLLNNFYPREAKVQWKVDNALQSGNSQESVTEQDSKDSTYSLSSTLTLSKADYEKHKVYACEVTHQGLSSPVTKSFNRGE[letters of human IgG1 Fc with changes not shown]GGSGGSGGGGSGGGGSDIQMTQSPSSLSASVGDRVTITCQASQDISNYLNWYQQKPGKAPKLLIYDASNLETGVPSRFSGSGSGTDFTFTISSLQPEDIATYFCQHFDHLPLAFGGGTKVEIKGGGGSGGGGSGGGGSQVQLQESGPGLVKPSETLSLTCTVSGGSVSSGDYYWTWIRQSPGKGLEWIGHIYYSGNTNYNPSLKSRLTISIDTSKTQFSLKLSSVTAADTAIYYCVRDRVTGAFDIWGQGTMVTVSS
For B4, the binding result in test [4] is given as “binds”.
